Test results from publication PMC12040169 (PLOS Biology, 2025).
The other results are listed elsewhere or left out.

System: T1, C. trachomatis L2/434/Bu expressing GFP (CTL2-GFP)
T1 construct: L2/434/Bu GFP intracellular growth in HeLa cells
Set-up: species or system HeLa; C. trachomatis total inclusion area by high-content imaging, normalised to DMSO
Conditions: total inclusion area; 28.5 h, 10 µM; inhibitor
Summary of the method: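 Host cell viability was gauged from Hoechst-stained nuclei counts, while chlamydial growth was taken from total inclusion area and inclusion number per well. Cells were fixed and imaged by high-content microscopy once bulk GFP and resorufin fluorescence had been measured.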

Compound	% of control remaining
CC1Cc2cc(C(=O)N3CCCCC3CCN3CCCC3)ccc2O1 (stereo not shown) [CBK282094]	85.5856
Clc1ccc(CN2CCN(CCc3ccccc3)CC2)cc1Cl [CBK126420]	103.801
O=C(NCCNC(=O)c1ccccn1)c1ccccn1 [CBK265654]	97.7746
Cc1cc(Cl)ccc1NC(=O)CCC(=O)N/N=C/c1ccc(O)cc1 [CBK261974]	97.8304
CC(C)C1SC(=NC2CC3CCC2C3)N(C)C1=O (stereo not shown) [CBK076727]	89.158
CN(Cc1ccccc1)C(=O)[C@@H]1Cc2[nH]cnc2CN1Cc1cc2ccccc2o1 [CBK288978]	88.5192
CCc1nc2n(n1)CC(NCc1nc(C)ccc1O)CC2 (stereo not shown) [CBK306107]	37.0779
COc1cc2c(cc1CN(Cc1ccc3c(c1)OCO3)CC(C)O)CCC2 (stereo not shown) [CBK286473]	80.1388
O=C(O)CCc1ccc(-c2cc(N3CCN(CC(=O)N4CCCC4)CC3)ncn2)cc1 [CBK091079]	106.049
Cc1cccc(OCc2nnc(SCc3nc4ccccc4c(=O)[nH]3)o2)c1 [CBK269030]	88.8929
O=C(NC1CCCC1)c1ccc2nccnc2c1 [CBK200217]	100.623
C=CCn1c2cc(C)sc2c2cnn(CC(=O)NC3CC3)c(=O)c21 [CBK284149]	92.5871
COc1cc(F)ccc1-c1ccc(N)c2ccccc12 [CBK084319]	93.8706
Cn1ccnc1C1(O)CCN(C(=O)c2cccc(F)c2)CC1 [CBK283543]	64.9556
CC1(CNC(=O)c2cc(C3CC3)nc3ccccc23)COC1 [CBK281752]	128.209
Cc1ccc(CCC(=O)C(C#N)c2nc3ccccc3s2)o1 (stereo not shown) [CBK268944]	79.9539
O=C(O)C1CCCCN1S(=O)(=O)c1ccc(Cl)cc1 (stereo not shown) [CBK077418]	77.4018
O=[N+]([O-])c1cc(S(=O)(=O)Nc2ccccc2)ccc1N1CCN2CCCC2C1 (stereo not shown) [CBK001248]	92.6174
Cc1cc(C)n(C(C)CC(=O)NCC(C)N2CCC(C)CC2)n1 (stereo not shown) [CBK282104]	93.3628
CCn1nc(C(C)C)cc1C(=O)N1CCN(C)CC1c1ccccc1 (stereo not shown) [CBK282025]	91.618
O=C(/C=C/c1ccco1)NC(=S)Nc1ccccc1[N+](=O)[O-] [CBK264375]	96.3066
Cc1[nH]c(=O)c(C(=O)Nc2ccc(-n3ccc(C(N)=O)n3)cc2)cc1-c1ccccc1 [CBK291194]	84.6501
COc1ccc(NC(=O)c2cnccn2)c(OC)c1 [CBK262240]	65.6461
O=C(CSc1n[nH]c(-c2ccccc2Cl)n1)Nc1ccccc1F [CBK265901]	83.729
CN1CCN(S(=O)(=O)c2ccc(NC(=O)c3cc(-c4ccncc4)nc4ccc(Cl)cc34)cc2)CC1 [CBK267730]	68.1859
COc1ccc(C)cc1NC(=O)CSc1nnc(-c2ccccc2Cl)n1-c1ccccc1 [CBK267538]	81.0169
CCOC(CCNC(=O)c1cnc(Nc2ccccc2OC)c2ccccc12)OCC [CBK291184]	26.9153

Compound	% of control remaining
O=C(CCn1cccn1)N1Cc2ccccc2CC1C1CCOCC1 (stereo not shown) [CBK282262]	82.7393
N#Cc1cc(SCCC(=O)O)c(N2CCOCC2)cc1C#N [CBK269212]	109.962
CCOC(=O)C1(C2CCCCC2)CCN(C(=O)c2cccnc2)CC1 [CBK137104T]	80.2772
CC(C)(C)c1cn(C[C@H]2CC3CCN2C[C@@H]3C(=O)NCc2ccc(F)cc2)nn1 (stereo partly shown) [CBK289081]	105.413
Fc1c(F)c(Oc2ccccc2Cl)c(F)c(F)c1/C=C/CN1CCOCC1 [CBK269318C]	99.3602
CCN(CC)C(=O)c1sccc1NS(=O)(=O)c1ccc(OC)c(OC)c1 [CBK004596]	121.751
COc1ccc(C2CC(c3c(-c4ccccc4)c4cc(Cl)ccc4[nH]c3=O)=NN2C(=O)CCC(=O)O)cc1OC (stereo not shown) [CBK296128]	130.802
O=c1c2ccccc2[nH]c(=S)n1CCCN1CCC(Cc2ccccc2)CC1 [CBK267952]	100.981
O=C1c2ccccc2NC(c2cnc3ccccc3n2)N1O (stereo not shown) [CBK288357]	57.5269
CSc1ccc(-c2cn3ccnc3c(Nc3ccccc3)n2)cc1 [CBK066537]	143.065
C=CCN1C(=O)CC2(C1=O)C(=O)N(C)c1ccccc12 (stereo not shown) [CBK075472]	94.6425
CCOC(=O)c1ccc(C2=NCCC2)[nH]1 [CBK011191]	86.103
O=C(Oc1ccc(F)cc1C(=O)/C=C/c1ccccc1F)c1cccc([N+](=O)[O-])c1 [CBK264859]	39.9261
O=S(=O)(Nc1cccc2cc[nH]c12)c1ccc(F)cc1F [CBK153586]	111.456
CC(C)n1ccc2cc(C(=O)NC3CCOC(C)(C)C3)ccc21 (stereo not shown) [CBK304366]	45.3297
O=C(NCCCNc1ccc(C(F)(F)F)cc1[N+](=O)[O-])c1ccc(Cl)cc1 [CBK263721]	116.368
Cc1nc(S(=O)(=O)N2CCC(C(=O)N3CCCCCC3)CC2)cn1C [CBK305765]	29.229
Cc1cc(O)nc(C(C)N2CCN(Cc3noc(C(C)(C)C)n3)CC2)n1 (stereo not shown) [CBK305249]	108.467
CCCN1C[C@@H](O)C[C@H]2[C@H](O)[C@@H]1c1ccccc1N2C(=O)OC [CBK007809]	72.2581
CSc1ccccc1-n1nnnc1SCc1ccccc1 [CBK099033]	78.8926
CCNC(=O)C1(Cc2ccccc2-c2ccccc2C)CCN(C(=O)C2CCCCC2)CC1 [CBK285717]	85.4731
COCC(=O)N1CCN(C(=O)c2cccc(F)c2)C[C@H]1C(=O)OC [CBK289608]	90.12
CS(=O)(=O)c1ccc(-n2nnnc2CN2CCC3(CCC3)C2)cc1 [CBK306262]	29.2511
Cc1ccc(Cc2cnc(NC(=O)CN3CSCC3=O)s2)cc1Cl [CBK305001]	69.8111
COc1ccc(C(C)C)cc1-c1cn2ccnc2c(Nc2cccc(OC(F)(F)C(F)F)c2)n1 [CBK038049]	125.955
O=C1OC[C@@H](c2ccccc2)N1C(=O)[C@@H]1CN(Cc2ccccc2)C[C@H]1c1cc2ccccc2o1 [CBK022599C]	9.673
Cn1cc(C2CCCCN2C(=O)c2cccc(C#N)c2)cn1 (stereo not shown) [CBK304611]	32.8049

Compound	% of control remaining
N#Cc1cccc(CN2C[C@H](O)C[C@H]2c2nc(-c3ccc4c(c3)OCO4)no2)c1 [CBK288866]	87.843
O=S1(=O)CCC(c2nc(-c3ccc(Br)o3)no2)C1 (stereo not shown) [CBK306134]	41.4105
CSc1ccccc1C(=O)NCCN(C)C [CBK269757]	84.9906
O=C(CS(=O)(=O)c1ccccc1)Nc1ccc(OCc2ccccc2)cc1 [CBK269421]	91.0297
CN1CCN(C(=O)c2ccc(-c3nccnc3NCCc3cccnc3)cc2)CC1 [CBK036838]	106.334
CCC1CCc2c(sc(NC(=O)c3cc(-c4ccc(C)cc4C)nc4ccccc34)c2C(=O)OC)C1 (stereo not shown) [CBK262629]	109.62
O=C(O)c1cccc(NC(=O)c2cnc(-c3cccc(C(F)(F)F)c3)c(-c3cccc(CO)c3)c2)c1 [CBK037565]	101.342
O=C(Nc1cccc(-c2csnn2)c1)c1ccco1 [CBK270255]	85.4825
O=C1N/C(=N/c2ccccc2Cl)S/C1=C/c1ccc(-c2ccccc2Cl)o1 [CBK067752]	77.6111
N=C(N)SCP(=O)(c1ccccc1)c1ccccc1 [CBK260990]	82.0687
Cc1cccc(C=C(Cl)c2nc3sc(C(=O)O)c(C)c3c(=O)[nH]2)c1 [CBK295626]	87.7847
O=C(COc1cccnc1)N[C@H]1C2CCCCC2[C@@H]1c1ccccc1 (stereo partly shown) [CBK282951]	106.965
NC(=O)NC(CC(=O)N1CCCC1c1ccncc1)c1cccc(Br)c1 (stereo not shown) [CBK306345]	55.7097
COc1cccc2cc(C(=O)C3=C(O)C(=O)N(CCN4CCOCC4)C3c3cccs3)oc12 (stereo not shown) [CBK269433]	110.191
Cc1sc2ncn(CC(=O)NCc3nnc4n3CCC4)c(=O)c2c1C [CBK305654]	59.7462
O=C(NCCc1ccccc1)c1cc(Br)cnc1NCCCn1ccnc1 [CBK076421]	88.7624
CN1CCN(c2nccnc2-c2ccoc2)CC1 [CBK088834]	125.58
Cc1ccc2c(N)c(C(=O)c3cccs3)sc2n1 [CBK115369]	67.7978
Clc1ccc(-c2c[nH]c([C@@H]3COCCN3Cc3c[nH]cn3)n2)cc1 [CBK289316]	108.823
CCCCNC(=O)N(O)C1N(C)C(=S)SC1(C)C (stereo not shown) [CBK006880]	123.003
CNCC1CCCN(C(=O)c2ccc(Oc3cccnc3)cc2)C1 (stereo not shown) [CBK304479]	71.3233
COc1ccc(Oc2nccnc2N2CCN(CCCC#N)CC2)cc1OC [CBK083056T]	95.17
COc1ccccc1-c1cccc(C2CCCN(C(=O)CCCc3ccccc3)C2)n1 (stereo not shown) [CBK286217]	106.92
CCn1c(CC2CCN(C(=O)c3ccc(C)c(C)c3)CC2)nn(C)c1=O [CBK307133]	74.9368
Cc1ccc(OCCn2cncc2-c2cn(C)nc2C)cc1 [CBK281626]	98.314
